# Test results taken from the supplement of paper PMC9174493.
# Where a name gives a salt, the structure may show the parent alone. Some of the results follow. Single values of this set are uncertain. Values with irradiation are relative to irradiated vehicle.
# Tested on: A549-Dual
# Test: NF-kB reporter (SEAP) activity, viability-corrected, relative to vehicle (fold change vs vehicle); higher = more activation of STING-IRF / NF-kB immune response reporter
# Details: 3 µM; irradiation: none
# 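Further: viability correction based on the alamar blue assay, with concentrations leaving 10% survival or less dropped.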
row,Structure (SMILES),NF-kB reporter
1,"CC1(C)CCC(CN2CCN(c3ccc(C(=O)NS(=O)(=O)c4ccc(NCC5CCOCC5)c([N+](=O)[O-])c4)c(Oc4cnc5[nH]ccc5c4)c3)CC2)=C(c2ccc(Cl)cc2)C1 [Venetoclax (ABT-199, GDC-0199)]",1.34
2,CCN(CC)Cc1cc(Nc2ccnc3cc(Cl)ccc23)ccc1O.Cl.Cl [Amodiaquine hydrochloride],1.01
3,CCN(C(=O)c1c(O)c2c(Cl)cccc2n(C)c1=O)c1ccccc1 [Laquinimod],1.42
4,O=C(c1ccc(OCCN2CCCCC2)cc1)c1c(-c2ccc(O)cc2)sc2cc(O)ccc12 [Raloxifene],1.18

# Same assay, conditions: 10 µM; irradiation: 8 Gy/4 fr
row,Structure (SMILES),NF-kB reporter
1,CCC(=O)OCC(=O)C1(OC(=O)CC)C(C)CC2C3CCC4=CC(=O)C=CC4(C)C3(Cl)C(O)CC21C (stereo not given) [Beclomethasone dipropionate],0.535
2,CC(=O)Nc1ccc(OC(=O)c2ccccc2OC(C)=O)cc1 [Benorylate],1.06
3,Nc1ccccc1NC(=O)c1ccc(CNC(=O)OCc2cccnc2)cc1 [Entinostat (MS-275)],4.12
4,COc1cc(N2CCC(N3CCN(C)CC3)CC2)ccc1Nc1ncc(Cl)c(Nc2ccccc2P(C)(C)=O)n1,1.38
5,Cc1c(-c2ccc(-c3ccccc3F)cc2)nc2ccc(F)cc2c1C(=O)O [Brequinar],0.884
6,CCC1/C=C(\C)CC(C)CC(OC)C2OC(O)(C(=O)C(=O)N3CCCCC3C(=O)OC(/C(C)=C/C3CCC(Cl)C(OC)C3)C(C)C(O)CC1=O)C(C)CC2OC (stereo not given) [Pimecrolimus],1.21
7,COC(=O)/C=C/C(=O)OC [Dimethyl Fumarate],0.529
8,Cc1cc(Nc2ncc(Cl)c(Nc3ccccc3S(=O)(=O)C(C)C)n2)c(OC(C)C)cc1C1CCNCC1 [Ceritinib (LDK378)],0.997
9,Nc1nc(Cl)nc2c1ncn2C1CC(O)C(CO)O1 (stereo not given) [Cladribine],1.76
10,CC12CCC(=O)C=C1CCC1C2C(O)CC2(C)C1CCC2(O)C(=O)CO (stereo not given) [Hydrocortisone],1.01
11,Cc1coc2c1C(=O)C(=O)c1c-2ccc2c(C)cccc12 [Tanshinone I],1.05
12,Cn1cnc([N+](=O)[O-])c1Sc1ncnc2nc[nH]c12 [Azathioprine],0.682
13,O=c1ccc2cc3ccoc3cc2o1 [Psoralen],0.867
14,CCC(=O)NS(=O)(=O)c1ccc(-c2c(-c3ccccc3)noc2C)cc1 [Parecoxib],1.12
15,COc1ccc(-c2ccc3cc(C(=O)O)ccc3c2)cc1C12CC3CC(CC(C3)C1)C2 [Adapalene],0.755
16,CCC(C(=O)O)c1ccc(N2Cc3ccccc3C2=O)cc1 (stereo not given) [Indobufen],1
17,COC1CC2CCC(C)C(O)(O2)C(=O)C(=O)N2CCCCC2C(=O)OC(C(C)CC2CCC(O)C(OC)C2)CC(=O)C(C)/C=C(\C)C(O)C(OC)C(=O)C(C)CC(C)/C=C/C=C/C=C/1C (stereo not given) [Rapamycin (Sirolimus)],1.35
18,COc1ccc(C2CNC(=O)C2)cc1OC1CCCC1 (stereo not given) [Rolipram],0.856
19,Nc1nc(N)c2nc(-c3ccccc3)c(N)nc2n1 [Triamterene],0.723
20,CN(C)CCN1C(=O)c2cccc3cc(N)cc(c23)C1=O [Amonafide],0.917
21,CN1CCCC1CCOC(C)(c1ccccc1)c1ccc(Cl)cc1.O=C(O)/C=C/C(=O)O (stereo not given) [Clemastine Fumarate],1.01
22,CC12C=CC(=O)C=C1CCC1C3CC(O)C(O)(C(=O)CO)C3(C)CC(O)C12F (stereo not given) [Triamcinolone],1.02
23,CC1CC2C3CCC4=CC(=O)C=CC4(C)C3C(=O)CC2(C)C1(O)C(=O)CO (stereo not given) [Meprednisone],0.844
24,CCS(=O)(=O)O.COC(=O)c1ccc2c(c1)NC(=O)/C2=C(\Nc1ccc(N(C)C(=O)CN2CCN(C)CC2)cc1)c1ccccc1 [Nintedanib Ethanesulfonate Salt],1.57
25,CCCCCCCCCCCCCCCCCCOP(=O)([O-])OC1CC[N+](C)(C)CC1 [Perifosine (KRX-0401)],0.534
26,CCC1(O)CC2CN(CCc3c([nH]c4ccccc34)C(C(=O)OC)(c3cc4c(cc3OC)N(C=O)C3C(O)(C(=O)OC)C(OC(C)=O)C5(CC)C=CCN6CCC43C65)C2)C1 (stereo not given) [Vincristine],0.751
